Experimental findings from PubChem BioAssay AID488969 (Vanderbilt High Throughput Screening Facility, 2010) are described below.

Each structure is given as a SMILES string. Whole data set: some 110,000 compounds, median “z-score” near -0.1, cut for the highest 2% near 2. Some of the results follow. Activity calls are given as the source filed them.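 The calls were made as follows: active = z-score in the third read window above 3 or below -3; inactive = the rest.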

The target of the experiment is Metabotropic glutamate receptor 8 (Rattus norvegicus) (UniProt P70579). The experiment in a line: mGluR8 Gi/Go-coupled signaling modulation – cell-based, rat, thallium flux, HTS, primary screen (AID 488969). The following applies: HEK293 rat mGluR8, GIRK (G protein-gated inwardly rectifying potassium channel) thallium flux, FluoZin2; at 10 µM; stronger effect = higher value; submaximal glutamate (EC20) added with thallium.
UniProt P70579, sequence (P70579 whole entry, looked up): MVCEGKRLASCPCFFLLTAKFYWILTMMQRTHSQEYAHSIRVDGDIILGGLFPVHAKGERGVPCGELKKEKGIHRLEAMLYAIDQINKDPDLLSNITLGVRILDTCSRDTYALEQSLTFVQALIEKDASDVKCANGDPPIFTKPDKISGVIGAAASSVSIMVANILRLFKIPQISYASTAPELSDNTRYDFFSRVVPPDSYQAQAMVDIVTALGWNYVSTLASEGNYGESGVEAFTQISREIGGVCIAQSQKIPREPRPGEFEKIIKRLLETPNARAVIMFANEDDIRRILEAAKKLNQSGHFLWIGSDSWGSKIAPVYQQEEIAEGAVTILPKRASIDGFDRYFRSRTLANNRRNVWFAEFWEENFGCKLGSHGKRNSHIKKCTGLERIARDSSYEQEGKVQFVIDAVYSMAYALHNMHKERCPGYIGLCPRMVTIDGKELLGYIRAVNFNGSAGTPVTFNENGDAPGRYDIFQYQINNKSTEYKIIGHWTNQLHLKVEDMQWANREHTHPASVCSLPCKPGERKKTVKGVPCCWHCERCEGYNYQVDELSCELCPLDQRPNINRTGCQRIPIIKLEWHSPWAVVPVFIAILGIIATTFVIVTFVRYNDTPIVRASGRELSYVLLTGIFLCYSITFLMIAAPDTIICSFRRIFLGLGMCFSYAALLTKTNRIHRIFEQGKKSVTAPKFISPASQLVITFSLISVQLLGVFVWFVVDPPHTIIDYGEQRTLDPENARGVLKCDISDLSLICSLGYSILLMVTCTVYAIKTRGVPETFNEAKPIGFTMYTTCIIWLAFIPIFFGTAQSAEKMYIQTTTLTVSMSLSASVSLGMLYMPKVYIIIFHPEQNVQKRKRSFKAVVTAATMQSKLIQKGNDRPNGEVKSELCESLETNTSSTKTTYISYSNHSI
For the compound `N#CNC1=NCN(CCc2ccccc2)CN1`, the z-score was -0.0746.
In the case of `Cc1ccc(-c2nnc(N3CCCCC3)c3ccccc23)cc1S(=O)(=O)NCC1CCCO1` (configuration not stated) it was -0.815; in that of `CC1CC(NC(=O)Cc2ccc(Br)cc2)CC(C)(C)C1` (configuration not stated), -0.226.
As for `COc1cc2nc(CN3C(=O)c4ccccc4C3=O)oc(=O)c2cc1OC`, the figure is -0.733; as for `Cc1cccc(-n2c(SCc3cc(=O)n4ccsc4n3)nc3ccccc32)c1`, -0.736.
In the case of `CCCCOc1ccc(N2C(=O)CC(N(O)c3ccccc3)C2=O)cc1` (configuration not stated) it was -0.0742.
`COC1(OC)C(/C=C/c2ccc(Cl)cc2)C(C#N)(C#N)C1(OC)OC` (configuration not stated): the z-score is -0.422.
As for `Cc1ccc(-c2nc3ccccc3[nH]2)cc1NC(=O)/C=C/c1ccco1`, the figure is -0.472; as for `O=C1c2cccnc2-c2ncccc21`, 0.109; as for `CSCCC(NS(=O)(=O)c1ccc(Cl)cc1)C(=O)OCC(=O)c1ccc(F)cc1` (configuration not stated), -0.372.
In the case of `O=S(=O)(c1cccc(-c2nnc(SCc3nc4ccccc4s3)o2)c1)N1CCOCC1` it was -0.0837.
For the compound `O=C(O)C1CC=CCC1C(=O)N1CCc2ccccc21` (configuration not stated), the z-score was -0.0135.
In the case of `COc1cc(-c2nc(-c3ccc(NC(=O)c4ccc(Br)o4)cc3)no2)cc(OC)c1OC` it was -1.33.
In the case of `CC1CCc2nc(N)c(C#N)c(-c3cccnc3)c2C1` (configuration not stated) it was 0.143; in that of `O=C(Nc1ccccn1)c1ccc2c(c1)S(=O)(=O)c1ccccc1C2=O`, 0.0299.
In the case of `CN(C)c1nc(Nc2ccccc2)nc(N(C)C)n1` it was -0.0585; in that of `CCc1cc2cccc(C)c2nc1SCC(=O)NNC(=O)c1ccco1`, 1.88.
In the case of `O=C(Nc1nnc(C2CCCC2)s1)C1CCN(S(=O)(=O)c2ccc(Cl)cc2)CC1`, the z-score is -0.598.
As for `COc1ccc(C2C(C(C)=O)=C(O)C(=O)N2c2ccc(Br)cn2)cc1` (configuration not stated), the figure is -0.207; as for `COc1ccc(CN(C2CCCCC2C)S(=O)(=O)c2ccc(S(=O)(=O)N(C)C)cc2)cc1OC` (configuration not stated), 0.0696.
As for `CCCC(c1c(C)n(C)n(-c2ccccc2)c1=O)c1c(C)n(C)n(-c2ccccc2)c1=O`, the figure is active: -4.1.
In the case of `CC(=O)c1ccc(OCC(O)CN2CCN(Cc3ccccc3)CC2)cc1` (configuration not stated) it was -0.101; in that of `Cc1ccc(S(=O)(=O)NC2(C(F)(F)F)NC(=O)N(C)C2=O)cc1` (configuration not stated), 0.0117; in that of `CCN1C(=O)/C(=C2/Sc3ccc(OC)cc3N2C)SC1=Nc1ccc(C)cc1`, -0.0515.
`Cc1ccc(S(=O)(=O)N2CCN(C(=O)CN3CCc4ccccc4C3)CC2)cc1`: the z-score is -0.482.
For `Cn1c(=O)c2c(SCc3cccnc3)nc(C3CC3)nc2n(C)c1=O`, the z-score was -0.454.
In the case of `O=C(NNC1=C(C(=O)C(F)(F)F)CCC1)c1ccccc1Cl` it was 0.932.
Turning to `CCCCCn1c(=NC(C)=O)c(C#N)cc2c(=O)n3ccccc3nc21`, the z-score amounted to 0.838.
As for `COc1cccc(NC(=O)c2ccccc2SC)c1`, the figure is -0.0887; as for `O=S(=O)(c1ccccc1)c1nc(-c2ccco2)oc1N1CCCCCC1`, -0.0809.
In turn, `COc1cccc(C(=O)N(Cc2ccco2)Cc2cc3cccc(C)c3[nH]c2=O)c1` showed a z-score of 0.716.
As for `CCCCc1ccc(C(=O)NC(C(=O)O)C(C)C)cc1` (configuration not stated), the figure is -0.49; as for `c1ccc(CCNc2ncnc3nc[nH]c23)cc1`, 0.0353; as for `Fc1ccc2nc3n(c2c1F)CCCCCC3`, 0.337.
In the case of `COc1ccc(NC(=O)c2cccnc2Nc2ccccc2)cc1` it was -0.282; in that of `CCOC(=O)COc1ncn(-c2ccccc2)n1`, 0.012; in that of `C/C(=N/NC(=O)c1ccccc1O)c1ccc(N2C(=O)C3CCCCC3C2=O)cc1` (configuration not stated), 0.0283.
In the case of `Cc1cccc2c1N(CCCOc1ccccc1)C(=O)C2=O` it was -0.16; in that of `CCOC(=O)/C(=C\C=C\c1ccccc1)NC(=O)c1ccccc1`, -0.692; in that of `O=C(Nc1nc(-c2ccccc2)cs1)C1CCCO1` (configuration not stated), -0.00109.
For the compound `Cc1nn(Cc2ccc(Cl)cc2)c(C)c1NC(=O)c1c(-c2ccccc2)noc1C`, the z-score is -0.167.
In the case of `CN(C)S(=O)(=O)Nc1ccc(Br)cc1F` it was 0.00731; in that of `CCCn1c(NCc2ccco2)nc2ccccc21`, -0.0878.
In the case of `CC1(C)CC(=O)C2=C(C1)OC(=O)C2(NC(=O)c1cccs1)C(F)(F)F` (configuration not stated) it was -0.153; in that of `Clc1ccc(-n2nnnc2CN2CCOCC2)cc1Cl`, -0.0916; in that of `CCOc1ccc(NS(=O)(=O)c2ccc(N)cc2)cc1`, -0.108.
As for `COC(=O)c1ccccc1NC(=S)NC(NC(=O)c1ccccc1[N+](=O)[O-])C(Cl)(Cl)Cl` (configuration not stated), the z-score came to 2.67.
As for `Cc1nn(-c2ccc(Cl)cc2Cl)c(=O)c2ccccc12`, the z-score is -0.155.
On to `COc1ccc(C)cc1NC(=O)C(OC(=O)c1cc(C)oc1C)c1ccccc1` (configuration not stated), for which the z-score is -0.184.
For `CCC(C)N(C(=O)c1csnn1)C(C(=O)NC(C)(C)C)c1ccccc1` (configuration not stated), the z-score was -0.0354.
In the case of `Cc1cc(C)c(S(=O)(=O)NCc2ccncc2)c(C)c1` it was -0.32; in that of `O=C(c1ccc(Cl)cc1)[C@@H]1[C@@H]2C(=O)N(c3ccccc3)C(=O)[C@@H]2C2c3ccccc3C=NN21` (some centres not stated), 0.107.
In the case of `O=C1N(CCCN2C(=O)C3(OCCO3)c3ccccc32)c2ccccc2C12OCCO2` it was -0.237; in that of `Cc1ccccc1Cn1nc(C)c(NC(=O)c2cc3n(n2)C(C(F)F)CC(C(F)F)N3)c1C` (configuration not stated), -0.667.
As for `COc1ccccc1NS(=O)(=O)c1cccc(C(=O)N/N=C/c2c(C)nn(-c3ccccc3)c2N2CCCC2)c1`, the figure is -0.504; as for `Nc1nncn1C(=O)CCc1ccccc1`, 0.876; as for `CC(C)CC(=O)Nc1cc(C(F)(F)F)ccc1N1CCOCC1`, -0.011.
For `OCc1ccnc(Cl)c1`, the z-score was -0.0809.
As to `CCOC(=O)c1oc2ccccc2c1CSc1nnnn1-c1ccc(OC)cc1`, the z-score is -0.0172.
In the case of `COc1cc(C2NC(=O)C(C#N)=C(S)N2c2ccccc2)ccc1OC(C)C` (configuration not stated) it was -0.564.
Turning to `CCN(Cc1ccncc1)C(=O)C1CCN(S(=O)(=O)c2cccs2)CC1`, the z-score was 0.152.
In the case of `Cc1cc(=O)oc2cc(OCC(=O)Nc3nnc(CC(C)C)s3)ccc12` it was -0.0633.
In the case of `O=C(COC(=O)C1(c2ccc(Cl)cc2)CCCC1)N1CCc2ccccc21` it was -0.252; in that of `CC(C)(C)c1cc(NC(=O)COC(=O)C2CC2)n(-c2ccccc2)n1`, 0.806; in that of `Cn1c(SC/C=C/c2ccccc2)nnc1-c1cnccn1`, -0.517.
As for `COc1ccc(OC)c(NC(=O)c2nnn(Cc3ccccc3C)c2N)c1`, the figure is 0.662.
Regarding `CC(C)CCNCC1OCc2ccccc2CO1`, the z-score is -0.303.
In the case of `Cc1nnc2sc(SCc3ccccc3)nn2c1=O` it was -0.0579; in that of `O=C(Nc1cccnc1)C1CCCN1S(=O)(=O)c1ccc(Cl)c(Cl)c1` (configuration not stated), 0.0506; in that of `COc1ccccc1NC(=S)NNC(=S)Nc1ccc(OC(F)F)cc1`, -0.345.
In the case of `Cc1ccc(NC(=O)NC2(C(=O)NCc3ccccc3)CCCCC2)cc1` it was -0.11; in that of `O=C(CCNC(=O)Cn1ccc2ccccc2c1=O)NCCc1ccccc1Cl`, -0.0359.
In the case of `COc1cccc(C2CC(c3ccccc3)Nc3ncnn32)c1` (configuration not stated) it was 0.129; in that of `C=CCNC(=O)c1onc(CSc2ccc(OC)cc2)c1C(=O)O`, 0.0269; in that of `O=c1c2ccsc2ncn1Cc1ccccc1F`, -0.166.
Regarding `CCCn1nnnc1NC(=O)c1ccc(C)cc1Cl`, the z-score is -0.0666.
As for `O=C(NC1CCCCC1)C(c1ccco1)N(Cc1ccco1)C(=O)c1ccco1` (configuration not stated), the figure is -0.364.
In the case of `O=C(Cn1nc(C(F)(F)F)c2c1CCCC2)NCCN1CCOCC1` it was -0.184; in that of `Cc1nnnn1/C(=C\c1ccccc1)C(=O)OCC(=O)NC(C)(C)C`, -0.0667.
As for `CCOc1ccccc1NC(=O)c1cccnc1`, the figure is -0.191; as for `O=S(=O)(NCc1ccccc1)c1cccs1`, -0.245; as for `CC(C)NC(=O)Cn1c(SCC(=O)c2ccc(F)cc2)nc2ccccc21`, -0.423.
Consider `COC(=O)c1sc2ccccc2c1-n1cccc1C(=O)C(=O)Nc1ccc(C)cc1`, for which the z-score was -0.074.
As for `c1ccc(C2OC3c4cccc5cccc(c45)C3N2c2ccccc2)cc1` (configuration not stated), the figure is -0.603.
For the compound `CC(C)Cc1ccc(S(=O)(=O)N2CCCC2)cc1`, the z-score worked out at 0.201.
In the case of `CCOc1ccccc1C1C2C(=O)N(c3ccccc3)C(=O)C2ON1c1ccccc1` (configuration not stated) it was 1.85.
In the case of `CCOC(=O)c1c(C(F)(F)F)cc(-c2ccc(F)cc2)nc1C`, the z-score is -0.238.
As for `O=C(CSc1nnc(Cn2nnc3ccccc32)o1)Nc1cccc(Cl)c1`, the figure is 0.0579; as for `C/C(Cl)=C/Cn1c(NCCN(C)C)nc2c1c(=O)n(C)c(=O)n2C`, -0.612.
As for `CCC1CCCCN1CCCNC(=O)CC1Oc2ccccc2NC1=O` (configuration not stated), the figure is 1.27; as for `CN(CC(=O)Nc1ccc(C#N)cc1)Cc1ccc(Cl)cc1Cl`, -0.479; as for `O=S(=O)(c1cccc2nonc12)N1CCN(c2cccc(Cl)c2)CC1`, -0.0312.
For `CCOC(=O)C1=NNC(C(=O)c2ccc(C)cc2)C1c1ccc(OC)cc1` (configuration not stated), the z-score is -0.111.
In the case of `O=C(Cc1ccccc1)NC(=S)Nc1ccc2oc(-c3ccccc3F)nc2c1` it was 0.222.
In the case of `O=C(c1cn(-c2ccccc2)nc1-c1ccc(F)cc1)N1CCCCC1` it was -0.391.
As for `COc1ccc(C2=NN(CN3C(=O)C(=O)c4ccccc43)C(c3ccc(C)cc3)C2)cc1` (configuration not stated), the figure is -0.153; as for `CS(=O)(=O)Nc1nc2n(n1)C(c1ccccc1)C=C(c1ccc(Br)cc1)N2` (configuration not stated), -0.473; as for `Cc1nc2c3cc(F)ccc3n(Cc3ccccc3)c2s1`, 0.256.
Regarding `O=C(CCCC(=O)OCC(Cl)=C(Cl)Cl)Nc1ccccc1F`, the z-score was -0.429.
As for `CCCCCC(=O)N/N=C(\C)c1ccccn1`, the figure is -0.325; as for `O=C(NN1C(=O)c2ccccc2NC1c1ccccc1OCc1ccccc1)c1ccncc1` (configuration not stated), -0.127; as for `CCOc1ccccc1NC1c2ccccc2C(=O)N1c1ccc(C)cn1` (configuration not stated), -0.17.
The compound `Cc1ccc(C(=O)c2oc3nc(C)cc(C)c3c2N)cc1` yielded a z-score of 0.126.
As for `COc1cc(C(=O)NCCc2ccc3c(c2)OCCO3)ccc1OCC(=O)N1CCOCC1`, the figure is 0.0469; as for `Cn1c(N/N=C2\CCCc3ccccc32)nc2c1c(=O)n(Cc1ccc(F)cc1)c(=O)n2C`, -0.145.
Consider `O=C(NCCO)c1ccccc1O`, for which the z-score turned out to be 0.211.
In the case of `COc1ccc(-c2noc(-c3ccccc3C(=O)Nc3cccnc3)n2)cc1OC` it was 0.205.
As for `Cc1nnc(C)n1/N=C/c1ccc(O)cc1`, the figure is -0.434; as for `CCc1ccc(C2=CC(c3cc(Br)ccc3F)n3ncnc3N2)cc1` (configuration not stated), -0.11; as for `O=c1c2sccc2n(Cc2cc(=O)n3ccccc3n2)c(=O)n1-c1ccccc1`, -0.407.
As for `CC(=O)C1=C(Nc2ccc(C)cc2)CC(C)(O)C(C(C)=O)C1c1ccco1` (configuration not stated), the figure is -0.0902; as for `Cc1ccc(NC(N)=S)cc1C`, -0.134.
